Laboratory results published in the antibiotic and cytotoxicity screens of Wong et al. (2023).
Some of the results follow.

Legend:
HSkMC = human skeletal muscle cells; experiment: cytotoxicity call (relative viability < 0.9); conditions: 10 µM
HepG2 = experiment: cytotoxicity call (relative viability < 0.9); conditions: 10 µM
S. aureus RN4220 = experiment: growth inhibition call (relative growth <= 0.2); conditions: 50 µM

| Compound | cytotoxicity call (HSkMC) | cytotoxicity call (HepG2) | growth inhibition call (S. aureus RN4220) |
| --- | --- | --- | --- |
| c1ccc2c(c1)[nH]c1cnccc12 | inactive | inactive | inactive |
| COc1cc2c(cc1OC)C1C(=O)c3ccc4c(c3OC1CO2)CC(C(C)C)O4 (stereo not given) | inactive | active | inactive |
| NCCc1ccc(S(N)(=O)=O)cc1 | inactive | inactive | inactive |
| Cc1cc(N2CCN(C)CC2)ncn1 | inactive | inactive | inactive |
| C1CO[C@H]2[C@@H](C1)CNC[C@H]2N1CCOCC1 | inactive | inactive | inactive |
| C=CCC1(C(C)CCC)C(=O)N=C([S-])NC1=O.[Na+] (stereo not given) | inactive | inactive | inactive |
| CC(C)(C)[C@]1(O)C[C@@H]2OC(=O)C[C@]23C(=O)O[C@@H]2OC(=O)[C@H](O)[C@]231 | inactive | inactive | inactive |
| Cc1cc(CCN)on1 | inactive | inactive | inactive |
| O=C(NC[C@H]1CCC2(CCNCC2)O1)C1CC1 | inactive | inactive | inactive |
| ClC=C(Cl)Cl | inactive | inactive | inactive |
| CN1[C@@H]2CC[C@@H]1C[C@H](O)C2 (stereo not given in full) | inactive | inactive | inactive |
| CCN1C[C@@]2(C)CC[C@H](OC)C34[C@@H]2[C@H](O)[C@]2(OCO[C@@]25C[C@H](OC)[C@H]2C[C@]3(O)[C@@H]5[C@H]2O)[C@@H]14 | inactive | inactive | inactive |
| N[C@]1(C(=O)O)CC[C@@H](C(=O)O)C1 | inactive | inactive | inactive |
| C[C@H]1CN([C@@H](C)CO)C(=O)CCCn2nncc2CO[C@H]1CN(C)C(=O)Oc1cccc2ccccc12 | inactive | inactive | inactive |
| C[C@]12CC[C@@H]3c4ccc(OC(=O)N(CCCl)CCCl)cc4CC[C@H]3[C@@H]1CC[C@@H]2OP(=O)(O)O | inactive | inactive | inactive |
| COc1cc2c(cc1OC)C1C(=O)c3ccc4oc(C(C)C)cc4c3OC1CO2 (stereo not given) | inactive | active | inactive |
| COP(=O)(OC)OC=C(Cl)Cl | inactive | inactive | inactive |
| COC1=CC(=O)OC(C=Cc2ccccc2)C1 (stereo not given) | inactive | inactive | inactive |
| Br.CC(Cc1ccc(O)cc1)NCC(O)c1cc(O)cc(O)c1 (stereo not given) | inactive | inactive | inactive |
| CC(C)C[C@@H](N)C1(c2ccc(Cl)cc2)CCC1 | inactive | inactive | inactive |
| CC1(C)[C@@H](C=C(Br)Br)[C@@H]1C(=O)O[C@@H](C#N)c1cccc(Oc2ccccc2)c1 | inactive | inactive | inactive |
| CC1CCC2C(C)C(=O)OC3OC4(C)CCC1C32OO4 (stereo not given) | inactive | inactive | inactive |
| CC(=O)O[C@H]1C[C@@H](OC(C)=O)C(C)(C)[C@@H]2C[C@@H](OC(C)=O)[C@]3(C)[C@H](CC[C@@]4(C)[C@H](c5ccoc5)C[C@H]5O[C@@]534)[C@@]12C | inactive | inactive | inactive |
| Cc1cccc(CC2(N)CC2)c1 | inactive | inactive | inactive |
| CC[C@@H](N)[C@@H](O)c1ccc(O)c(O)c1 | active | inactive | inactive |

| Compound | cytotoxicity call (HSkMC) | cytotoxicity call (HepG2) | growth inhibition call (S. aureus RN4220) |
| --- | --- | --- | --- |
| COc1cc2c(c(OC)c1OC)-c1ccc(O)c(=O)cc1[C@H](N)CC2 | inactive | inactive | inactive |
| C[C@@H]1CN([C@@H](C)CO)C(=O)CCCn2nncc2CO[C@@H]1CN(C)C(=O)Oc1ccc2ccccc2c1 | inactive | inactive | inactive |
| Cc1n[nH]c(=O)nc1N1CCN(C)CC1 | inactive | inactive | inactive |
| CCN1C[C@H]2CN(Cc3nccn3C)C[C@H]2C1=O | inactive | inactive | inactive |
| CNC(=O)Oc1ccc2c(c1)[C@]1(C)CCN(C)[C@@H]1N2C.CNC(=O)Oc1ccc2c(c1)[C@]1(C)CCN(C)[C@@H]1N2C.O=S(=O)(O)O | inactive | inactive | inactive |
| C[C@H](CO)N1C[C@H](C)[C@H](CN(C)C(=O)Oc2cccc3ccccc23)OCc2cn(nn2)CCCC1=O | inactive | inactive | inactive |
| CS(=N)(=O)CC[C@H](N)C(=O)O (stereo not given in full) | inactive | inactive | inactive |
| CC[n+]1c(-c2ccccc2)c2cc(N)ccc2c2ccc(N)cc21.[Br-] | inactive | active | inactive |
| COc1cccc(C=O)c1OC | inactive | inactive | inactive |
| O=C1C[C@@H](c2ccncc2)C2(CCNCC2)N1 | inactive | inactive | inactive |
| CC(O)CN1CCN(CC(=O)[O-])CCN(CC(=O)[O-])CCN(CC(=O)[O-])CC1.[Gd+3] (stereo not given) | inactive | inactive | inactive |
| NC1(c2ccc(F)cc2)CCC1 | inactive | inactive | inactive |
| O=c1[nH]c2ccccc2n1C1CCN(CCCC(c2ccc(F)cc2)c2ccc(F)cc2)CC1 | active | active | inactive |
| COc1ccc(C(=O)O[C@H]2CC[C@@]3(C)[C@@H]4CC[C@H]5[C@]6(O)C[C@H](O)[C@@]7(O)[C@@H](CN8C[C@@H](C)CC[C@H]8[C@@]7(C)O)[C@]6(O)C[C@@]53O[C@]24O)cc1OC | inactive | inactive | inactive |
| NC[C@@H](O)c1ccccc1 | inactive | inactive | inactive |
| CC(C)C[C@H]1C(=O)N2CCC[C@H]2[C@]2(O)O[C@](NC(=O)[C@@H]3C=C4c5cccc6[nH]c(Br)c(c56)C[C@H]4N(C)C3)(C(C)C)C(=O)N12 | inactive | inactive | inactive |
| Nc1ccccc1N1CCNCC1 | inactive | inactive | inactive |
| CCOP(=S)(OCC)Oc1nc(Cl)c(Cl)cc1Cl | inactive | inactive | inactive |
| O=C1CC[C@@H]2NCC[C@H]2N1 | inactive | inactive | inactive |
| COC(=O)C1CC(OC(C)=O)C(=O)C2C1(C)CCC1C(=O)OC(c3ccoc3)CC12C (stereo not given) | inactive | inactive | inactive |
| C[C@H](CO)N1C[C@H](C)[C@@H](CN(C)C(=O)Oc2ccc3ccccc3c2)OCc2cnnn2CCCC1=O | inactive | inactive | inactive |
| CC(C)(C)OC(=O)N[C@H]1[C@@H]2CNC[C@@H]21 | inactive | inactive | inactive |
| CC1=CC(=O)c2c(O)cccc2C1=O | active | active | active |
| O=C1CC2OCC=C3CN4CCC56c7ccccc7N1C5C2C3CC46.O=S(=O)(O)O (stereo not given) | inactive | active | inactive |
| C[C@@H]1CN([C@@H](C)CO)C(=O)c2c(c3ccccc3n2C)-c2ccccc2CO[C@H]1CN(C)C(=O)Oc1ccccc1 | inactive | inactive | inactive |

| Compound | cytotoxicity call (HSkMC) | cytotoxicity call (HepG2) | growth inhibition call (S. aureus RN4220) |
| --- | --- | --- | --- |
| C[C@@H]1CN([C@H](C)CO)C(=O)CCCn2cc(nn2)CO[C@H]1CN(C)C(=O)Oc1ccc2ccccc2c1 | inactive | inactive | inactive |
| CN1[C@@H]2CNc3ccccc3[C@@H]2[C@@H]1CO | inactive | inactive | inactive |
| CC(=O)OC(C)(C)/C=C/C(=O)C(C)(O)[C@H]1[C@H](O)C[C@@]2(C)[C@H]3CC=C4[C@@H](C[C@H](O)C(=O)C4(C)C)[C@]3(C)C(=O)C[C@]12C (stereo not given in full) | inactive | active | inactive |
| CCC1(C2OC(C3OC(O)(CO)C(C)CC3C)CC2C)CCC(C2(C)CCC3(CC(O)C(C)C(C(C)C(OC)C(C)C(=O)[O-])O3)O2)O1.[Na+] (stereo not given) | inactive | active | active |
| CC(CO)NC(=O)C1C=C2c3cccc4[nH]cc(c34)CC2N(C)C1.O=C(O)C=CC(=O)O (stereo not given) | inactive | inactive | inactive |
| CC(C)Oc1ccccc1CCN | inactive | inactive | inactive |
| CC(C)CCC[C@]1(C)C=Cc2c(O)c3c(c(CCC(C)C)c2O1)O[C@]12[C@H](C[C@@H]4C[C@H]1C(C)(C)O[C@]2(CC[C@@H](C)C(=O)O)[C@@H]4O)C3=O | inactive | inactive | inactive |
| NC(=O)C12CC(CN1)C2 | inactive | inactive | inactive |
| CC(NC(C)(C)C)C(=O)c1cccc(Cl)c1.Cl (stereo not given) | inactive | inactive | inactive |
| CN(C)C1=NC(=O)C2(CCNCC2)N1 | inactive | inactive | inactive |
| CC(C)(C)CC(=O)N1C[C@H]2C[C@@H]1CN2 | inactive | inactive | inactive |
| CN[C@@H]1[C@@H]2[C@H]3CCN2C[C@H]1O3 | inactive | inactive | inactive |
| [N-]=[N+]=Nc1ccccc1C[C@@]1(C(=O)NCCN2CCOCC2)N=C(c2ccc(OCCCO)cc2)O[C@@H]1c1ccccc1N=[N+]=[N-] | inactive | inactive | inactive |
| NC(=O)[C@H]1CNC(=O)C1 | inactive | inactive | inactive |
| C[C@H]1CN([C@@H](C)CO)C(=O)CCCn2nncc2CO[C@@H]1CN(C)C(=O)Oc1ccc2ccccc2c1 | inactive | inactive | inactive |
| CC1CC(C)C(=O)C(C(O)CC2CC(=O)NC(=O)C2)C1 (stereo not given) | inactive | active | inactive |
| CN1C(=O)NC(=O)/C(=C\c2ccc(O)cc2)C1=O | inactive | inactive | inactive |
| COc1ccc(C(CN(C)C)C2(O)CCCCC2)cc1.Cl (stereo not given) | inactive | inactive | inactive |
| C=C(C)[C@@H]1[C@H]2OC(=O)[C@@H]1[C@]1(O)C[C@H]3O[C@]34C(=O)O[C@H]2[C@]14C | inactive | inactive | inactive |
| Cc1noc(C)c1CN1CCNCC1 | inactive | inactive | inactive |
| CNCC(O)c1ccc(O)cc1.CNCC(O)c1ccc(O)cc1.O=C(O)C(O)C(O)C(=O)O (stereo not given) | inactive | inactive | inactive |
| CCNS(=O)(=O)C(F)(F)C(F)(F)C(F)(F)C(F)(F)C(F)(F)C(F)(F)C(F)(F)C(F)(F)F | inactive | inactive | inactive |
| NC(=O)c1cc([N+](=O)[O-])cc([N+](=O)[O-])c1 | inactive | inactive | inactive |
| CC(=O)[C@]12[C@@H]3CC=C[C@H]1N2CC3 (stereo not given in full) | inactive | inactive | inactive |
| C[C@@H]1C(=O)O[C@H]2[C@H](O)[C@@]34[C@@H]5OC(=O)[C@@]3(O[C@@H]3OC(=O)[C@H](O)[C@@]34[C@H](C(C)(C)C)[C@H]5O)[C@@]12O | inactive | inactive | inactive |
